Over roughly 2,300 sequences, “median log2 fold change of GCK-ALFA target abundance (FLAG IP / Myc IP barcode read proportion)” has its median near 0.095; the lowest 2% begin near -0.47. This is one part of the list.
B1: LC3A_45_2003 (protein)
chain: MWEITVDLLGKPEVVAKAVAAIKAAAAAFSKESGLKVTVDTSEAEAALAAEQDAEEVFATVKIYVDGDQEDADALIQRLEKVEEEVGPELSSIISKEEVP
B2: LC3A_127_191 (protein)
chain: NLLEEAERGLREAQELLRKLQRGEISLEEAEKRAEELLKRLERIAEELADNEVLKEMVEDARELLERAKKAPPEEQKPLLEELFSELALAFALAAVKLEE
B3: LC3A_59_2025 (protein)
chain: SAEIKALVDAAIAAKDDIDAMAKTILEGLEAVKDDPEKLKELKELLVEGLVKAGLLSEELAKEMVDDIVEAFEKLKNREDQLKAIKEIITTYLNEEEIEE
B4: LC3A_3_1640 (protein)
chain: MEEKVEEAAKRLKEAGHSEEVIEAFRETAELLMKRGYEEALKTLIEEMEKLIDLPDEILLDFLNDVKNYVLTHDDNEEEVIKFIKEEARIARNESEIIEL
B5: LC3A_28_721 (protein)
chain: GSLEENLEKALKEAKEAAEKGEEVVIEIKVPGDATEEDIEKVMKALEEIAEITKDLKSTAIIIDVDGGVKQEHIDKLADKAEEIEKKYPNVTVIIALDEE
B6: LC3A_3_1903 (protein)
chain: MEKLREELLKALKEAGASEETIEAAKEALDLIASRGLEKVAEEFVKAVKELLKESVEKAEEFIKRMLEFVKSFKGSDEEFEKALLEEIRTLKNEALIEEL
B7: LC3A_free_0_2114 (protein)
chain: MTTVVEVVVISKEPVSEEKVEKLEEFARELAEEISEKYGAETEVEVAEVDGRVVFTLTIKKEGMSIDEALEIADEVSDRLEEKAKELGVEVTIYESVYEE
B8: LC3A_132_321 (protein)
chain: SEKLYEELKEKITELLEEAEKNIDNLEKVEELVKEIRELAKEAKEKLSPEQVAELFDEAAEKADEVSLKALEAGKEDVSLLLDGLAVELAAESIRAEEEI
B9: LC3A_28_965 (protein)
chain: SALEEQLEKVLEEAKKAAKEGKPKVFVIEVPGDADEEDIEKVIKTIKEIAELLKDVKGSAIIVEVDAGVKQEHIDKLADTLEEIEKKYPNITAILALDED
B10: LC3A_3_1782 (protein)
chain: MEEKVEELLKELEEAGKSEETIEAVREALELLIERGYEEALETFVEETRELLDLPDEILLDFALEVLNLIKNEDLSEEELTKRIKELARLAKLEGEIEEL
B11: LC3A_28_803 (protein)
chain: SKTRESADAALAEARAQIAAGEEVFVTITIEEDATEEDVRYVAETIREIARLAKEAGIPRVYVTVDSPANEEHITIIDETEEELQAEGLPVTVVIAIEDE
B12: LC3A_28_660 (protein)
chain: SATREAADAAIAAARAAAARGEPAVITLTVTGDATPEDIDYVLAALEEIAAILAPIPGSAIVIDLEAGVDPEHRQRIIDKAEELEKRYPNVTVIIAEEEE
B13: LC3A_free_26_2167 (protein)
chain: DDFLDIAALDKALENLEEALKLAEKNKNVSEELKALLKKALENAKKGTLESFEQAIKDLEAAIKLVKENKKIPEEDKEKLLKLLEEALANLKENAEILKS
B14: LC3A_28_689 (protein)
chain: NYIEELKKKAEEILEEAAAKGEEAYIEIDFERPITPEEVEEIMDKLEEYIKKYKLKKVNIVINILSENQSQETIDTIMDKAEELEKRIPNVTVIIALPEN
B15: LC3A_28_1105 (protein)
chain: SEVDKENEAAIAEAKAAAAAGEPAVITLTVKATDTQEDIEKKLETLEEIAEILKDLPGSAIIVDLDGKIPQEAIDKIADRGEEIEEKYPNVTVIIALDEE
B16: LC3A_3_1778 (protein)
chain: ADELIEELLEALREAGKSEETIEAAREVAERLRERGFDEALETFVREMRRLLDVPDDILLDMLEEVLELLETEDLSEEEVIERIEELARLARAEAEIEEL
B17: LC3A_28_648 (protein)
chain: MTIEEQIEEALRKAREAREKGEPAVITLTVDGKATEEDIDRIIETMEEIARILDSIPGSAIIIDVTGGVKQEYIDRLAEKAEEIEKKYPNVTVIIALDED
B18: LC3A_free_0_2113 (protein)
chain: MVTVVEVVAISKEPVSEEKVAKLEAFAKALAAELSEKYGAETEVTVSTVDGRTVLTITLRKEGMSIDEGLEIADEVSDRLEAKFKELGVEVTIFESVYEE
B19: LC3A_28_991 (protein)
chain: SELKARADAVLKEVKEAAAKGEAKVFVIKVPSTATDEDIDYVVEAIKEMAEILKDVPGAAIIVDLESGVKQEHIDKIADAMDEAEEKNPNLAAIIALDED
B20: LC3A_3_1407 (protein)
chain: FEEIREETLELLREYGASEEVLEAAEEVLDALEEKGYEKAAETLLEELKELEDLSDELLLALLEDVLEFVTTEDASEEEVVEFIKEEATIAKNENEIEEL
B21: LC3A_45_1953 (protein)
chain: MYVAEVSVLVPEEEFEKAVAVLRETSARIREERGLEVEIDEEALKKAREEAKKEGEALVTVTVKSEDKDEALDAAVEIQDALEKAMSPKVASIISIKEEP
B22: LC3A_45_1951 (protein)
chain: MYRATVDVLVPREDFEAALAVLREKAKELSEKKGVKVEIDEEAVAAAREEAEREGEGLITVDVYHEDKQVALDAAVEIADRLEAELSPRVAVIISVEEVP
B23: LC3A_28_1149 (protein)
chain: SAMVEAAKAQIEADAEKDKDEKEVYLNVTLKKGMTVEEAAEVMDHLEEVVEKLKDKEKIYVVVDFEEPVSQEVLDLVLERADEIEEKFPNVSVIVALHED
B24: LC3A_3_1500 (protein)
chain: LEEAVERLLEALREAGVSEADIAEARELLEKAREYLTEESIEAITETVRRLAHLPPRLVAAAVLTLLETILEKKLNDEEVKEKAELLAETAESFAESDER
B25: LC3A_28_1262 (protein)
chain: NELEENLKKALEEAKKAVERGEEALITIKVPANVTEEEVKKIIETLEEIAELTKSLPKVTVIIDIERGVKQEHIDKLLDKAEELEKKYPNLTIIFALEEE
B26: LC3A_28_1096 (protein)
chain: SPLHEQLEAALAAVREAAAAGEPVTVTITVTDEATEEDLEYLEAALEEMAEIAAGLPSLSVIINLTGEKQQEFATRIGAFADELEARYPNLTVIIALDED
B27: LC3A_127_181 (protein)
chain: EKKEEVLKLAEKIVELARKMSDPDTSLEERKELAKEIIKLFKEIAKLEPEVKEDAEEAIELAETVLARYEAGEELDDVLEMLISGIEILAILIILKIEEK
B28: LC3A_3_1358 (protein)
chain: MEELVEETLKYLREAGKSEETIEAVRKAAEALIEKGYEEALKTFLELMKELKDLPDELLLAFAEDVLKAVTEEDLSEEELIEFIKEEARIARNEAEIIEL
B29: LC3A_free_26_2146 (protein)
chain: SDYIDLADIDEAIDNVEKALKLLKELGNKNEKLIKLLEEALKNLKKETLESLEKALKNLEEALKLVKEDKSIPEEAKKKLIELLTKAIENVKKNIEIMKS

molecular target: MAP1LC3A, Q9H492; assay: median log2 fold change of GCK-ALFA target abundance (FLAG IP / Myc IP barcode read proportion) (log2 ratio); each designed protein is fused to an ALFA-tag nanobody in HEK293 cells to bring the named protein to FLAG-tagged glucokinase (GCK); Myc marks an untargeted standard; higher = target protein stabilised (more abundant); conditions: target protein: 3xFLAG-MCP-GCK-ALFA reporter; HEK293 landing pad (RPLP)
How it was run: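 Binders fused to an ALFA nanobody were recombined as a library into HEK293 landing-pad cells, which were induced with 2 μg mL^−1 doxycycline and then transfected to express a FLAG-tagged target and a Myc-tagged standard. After 48 h, circular RNA barcodes recovered by anti-FLAG and anti-Myc immunoprecipitation of lysates were reverse transcribed, amplified and sequenced. Each binder's target abundance is the median log2 ratio of FLAG to Myc barcode read proportions, from barcodes present at ≥10^−7 in both replicates, binders carrying ≥3 barcodes per replicate, a 10^−6 pseudocount and pooled replicates.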

In order of falling “median log2 fold change” value:
1. B6  0.406
2. B3  0.394
3. B13  0.341
4. B28  0.308
5. B29  0.259
6. B1  0.258
7. B4  0.236
8. B10  0.226
9. B8  0.224
10. B9  0.214
11. B5  0.113
12. B12  0.104
13. B17  0.104
14. B24  0.0772
15. B26  0.0299
16. B27  0.0177
17. B2  0.011
18. B25  0.00327
19. B15  0.00201
20. B11  -0.0277
21. B16  -0.0575
22. B14  -0.0908
23. B21  -0.1
24. B18  -0.105
25. B7  -0.128
26. B19  -0.141
27. B23  -0.188
28. B20  -0.422
29. B22  -0.428

Source: the supplement of paper PMC12632987
